# Reference: PMC12529666
# Some of the results follow. At the low end of the ranking, values are background and their order means little.
# Molecular target: AGO2 WT (phosphosite mutant background) S387D + S824A + S828D + S831D + S834A (UniProt Q9UKV8)
# Assay: RNA Bind-n-Seq (nitrocellulose filter binding and sequencing)
# Settings: constant regions annealed to DNA blockers; guide miR-122 5' phosphate; 30 mM Tris pH 8.0, 100 mM potassium acetate, 2 mM magnesium acetate, 0.5 mM TCEP, 0.005% NP-40, 0.01 mg/ml yeast tRNA; 3 nM AGO2-miR-122, 100 nM RNA library …; high values mean tight binding
row,Sequence,binding signal (fold enrichment over input)
1,GAGUUCUACAGUCCGACGAUCCCAACGUACUCUGCACCUGGAAUUCUCGGGUGCCAA / UGGAGUGUGACAAUGGUGUUUG / GATCGTCGGACTGTAGAACTC / TTGGCACCCGAGAATTCCA,0.0838
2,GAGUUCUACAGUCCGACGAUCCCAACAUGCCUUGCACCUGGAAUUCUCGGGUGCCAA / UGGAGUGUGACAAUGGUGUUUG / GATCGTCGGACTGTAGAACTC / TTGGCACCCGAGAATTCCA,0.0933
3,GAGUUCUACAGUCCGACGAUCCCAACAUACCCUGCACCUGGAAUUCUCGGGUGCCAA / UGGAGUGUGACAAUGGUGUUUG / GATCGTCGGACTGTAGAACTC / TTGGCACCCGAGAATTCCA,0.0988
4,GAGUUCUACAGUCCGACGAUCCCAACGCAUUUUGCACCUGGAAUUCUCGGGUGCCAA / UGGAGUGUGACAAUGGUGUUUG / GATCGTCGGACTGTAGAACTC / TTGGCACCCGAGAATTCCA,0.086
5,GAGUUCUACAGUCCGACGAUCCCAACGUGUUUCACACCUGGAAUUCUCGGGUGCCAA / UGGAGUGUGACAAUGGUGUUUG / GATCGTCGGACTGTAGAACTC / TTGGCACCCGAGAATTCCA,0.11
6,GAGUUCUACAGUCCGACGAUCCCAACGUGUUUUACACCUGGAAUUCUCGGGUGCCAA / UGGAGUGUGACAAUGGUGUUUG / GATCGTCGGACTGTAGAACTC / TTGGCACCCGAGAATTCCA,0.103
7,GAGUUCUACAGUCCGACGAUCCCAACACGCUCCGCACCUGGAAUUCUCGGGUGCCAA / UGGAGUGUGACAAUGGUGUUUG / GATCGTCGGACTGTAGAACTC / TTGGCACCCGAGAATTCCA,3.15
8,GAGUUCUACAGUCCGACGAUCCCAACAUGUUUCACACCUGGAAUUCUCGGGUGCCAA / UGGAGUGUGACAAUGGUGUUUG / GATCGTCGGACTGTAGAACTC / TTGGCACCCGAGAATTCCA,0.125
9,GAGUUCUACAGUCCGACGAUCCCAACAUACUUUGCACCUGGAAUUCUCGGGUGCCAA / UGGAGUGUGACAAUGGUGUUUG / GATCGTCGGACTGTAGAACTC / TTGGCACCCGAGAATTCCA,0.0951
10,GAGUUCUACAGUCCGACGAUCCCAACGCAUCCUGCACCUGGAAUUCUCGGGUGCCAA / UGGAGUGUGACAAUGGUGUUUG / GATCGTCGGACTGTAGAACTC / TTGGCACCCGAGAATTCCA,0.0873
11,GAGUUCUACAGUCCGACGAUCCCAACAUACCUUGCACCUGGAAUUCUCGGGUGCCAA / UGGAGUGUGACAAUGGUGUUUG / GATCGTCGGACTGTAGAACTC / TTGGCACCCGAGAATTCCA,0.086
12,GAGUUCUACAGUCCGACGAUCCCAACGCGCCUUACACCUGGAAUUCUCGGGUGCCAA / UGGAGUGUGACAAUGGUGUUUG / GATCGTCGGACTGTAGAACTC / TTGGCACCCGAGAATTCCA,0.125
13,GAGUUCUACAGUCCGACGAUCCCAACGUAUCCUGCACCUGGAAUUCUCGGGUGCCAA / UGGAGUGUGACAAUGGUGUUUG / GATCGTCGGACTGTAGAACTC / TTGGCACCCGAGAATTCCA,0.0891
14,GAGUUCUACAGUCCGACGAUCCCAACGUGCUCUGCACCUGGAAUUCUCGGGUGCCAA / UGGAGUGUGACAAUGGUGUUUG / GATCGTCGGACTGTAGAACTC / TTGGCACCCGAGAATTCCA,0.123
15,GAGUUCUACAGUCCGACGAUCCCAACAUACUCUGCACCUGGAAUUCUCGGGUGCCAA / UGGAGUGUGACAAUGGUGUUUG / GATCGTCGGACTGTAGAACTC / TTGGCACCCGAGAATTCCA,0.102
16,GAGUUCUACAGUCCGACGAUCCCAACAUGUUUUACACCUGGAAUUCUCGGGUGCCAA / UGGAGUGUGACAAUGGUGUUUG / GATCGTCGGACTGTAGAACTC / TTGGCACCCGAGAATTCCA,0.12
17,GAGUUCUACAGUCCGACGAUCCCAACGUGUUUCGCACCUGGAAUUCUCGGGUGCCAA / UGGAGUGUGACAAUGGUGUUUG / GATCGTCGGACTGTAGAACTC / TTGGCACCCGAGAATTCCA,0.0901
18,GAGUUCUACAGUCCGACGAUCCCAACACAUCUCGCACCUGGAAUUCUCGGGUGCCAA / UGGAGUGUGACAAUGGUGUUUG / GATCGTCGGACTGTAGAACTC / TTGGCACCCGAGAATTCCA,0.0811
19,GAGUUCUACAGUCCGACGAUCCCAACACGUCUCGCACCUGGAAUUCUCGGGUGCCAA / UGGAGUGUGACAAUGGUGUUUG / GATCGTCGGACTGTAGAACTC / TTGGCACCCGAGAATTCCA,0.0885
